The target in assay [1] is T1, preformed IL-17RC-IL-17A complex (IL-17A captured by immobilised IL-17RC) (UniProt Q8NAC3 21-538; Q16552 24-155, biotin on the C-terminal BirA ligase tag).
T1 construct: extracellular domain;mature; One receptor with one cytokine dimer, assembled stepwise on the SPR chip; also called existing IL-17RC-IL-17A complex; not shown: C-terminal BirA ligase tag
Put plainly: SPR, second receptor injected over IL-17A captured on immobilised IL-17RC. From the text:
This strategy involved immobilizing one receptor on a SPR chip at a low coupling density in order to minimize possible homo-dimerization (e.g. cross-linking) of the receptors on the chip. The dimeric IL-17 cytokine was then captured by this receptor so that each receptor would be bound to one dimeric IL-17 ligand, leaving an exposed and accessible second receptor-binding site. The second receptor was subsequently passed over the preformed receptor-cytokine complexes to measure the affinity of the second receptor-binding event. In this fashion, the complex was assembled in a stepwise manner and each of the binding affinities was measured (FIG. 3).
Binding affinities were calculated via surface plasmon resonance (SPR) on a Biacore® T100 (GE Healthcare). C-terminally biotinylated IL-17 receptors were coupled to immobilized streptavidin on either an SA or CM4-sensor chip (GE Healthcare). An irrelevant, biotinylated protein was captured at equivalent immobilization densities to control flow cells. To measure the second receptor binding interaction, the cytokine was first captured to the immobilized receptor, followed by the second receptor injection. Low coupling densities (200-400 RU) and excess cytokine concentrations were used to optimize the number of cytokine homodimers bound to a single receptor. […] Data was analyzed using Biacore® T100 evaluation software Version 2.0 (GE Healthcare). […]

For a further assay, the target named is T2, IL-17A (UniProt Q16552 24-155, limits assumed).
T2 construct: mature; The form 'mature' is inferred from secretion; also called interleukin-17; CTLA-8
Kind of assay: SPR, biotinylated receptor on streptavidin chip, cytokine injected. How it is done: Binding affinities were calculated via surface plasmon resonance (SPR) on a Biacore® T100 (GE Healthcare). C-terminally biotinylated IL-17 receptors were coupled to immobilized streptavidin on either an SA or CM4-sensor chip (GE Healthcare). An irrelevant, biotinylated protein was captured at equivalent immobilization densities to control flow cells. To measure the second receptor binding interaction, the cytokine was first captured to the immobilized receptor, followed by the second receptor injection. Low coupling densities (200-400 RU) and excess cytokine concentrations were used to optimize the number of cytokine homodimers bound to a single receptor. The surface was regenerated using 3 M MgCl2 between each cycle. For kinetic experiments, a flow rate of 50 μl/min was used. Data was analyzed using Biacore® T100 evaluation software Version 2.0 (GE Healthcare). Affinities are reported as the mean of at least two independent experiments±the standard error of the mean (s.e.m.).

This note sets out measurements from patent US20140105855A1 (published 2014).

B1: IL-17RA extracellular domain (ECD) (receptor)
chain: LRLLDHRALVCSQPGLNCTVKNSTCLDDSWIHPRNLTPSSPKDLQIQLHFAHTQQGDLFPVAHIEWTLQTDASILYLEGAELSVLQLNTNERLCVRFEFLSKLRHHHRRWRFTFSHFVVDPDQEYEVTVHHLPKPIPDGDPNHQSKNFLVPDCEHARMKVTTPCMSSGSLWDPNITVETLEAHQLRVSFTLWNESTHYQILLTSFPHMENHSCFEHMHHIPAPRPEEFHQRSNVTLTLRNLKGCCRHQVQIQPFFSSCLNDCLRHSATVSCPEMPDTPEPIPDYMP
In the case of B1, the results for the dissociation constant (Kd) (in assay [1]; with IL-17A) were 162 nM and 2.8 nM, respectively.
